Consider three compounds from patent publication US20250019701A1, “TREATMENT FOR INFLAMMATORY DISEASE” (priority 2021, published 2025).

The series has as its system Vero cells. The conditions noted are these: Vero cells 24 and 48 hours post-infection; etifoxine 30 μM, FGIN 1-27 200 nM, PK11195 200 nM, XBD 173 30 μM.
Take `CCN(Cc1ccccc1)C(=O)Cn1c(=O)n(C)c2cnc(-c3ccccc3)nc21` [XBD173]: the “protection from SARS-CoV-2 triggered cell death / cytotoxicity (qualitative)” value is “protection”.

As to `CCC(C)N(C)C(=O)c1cc2ccccc2c(-c2ccccc2Cl)n1` (stereo not drawn) [PK11195], the “protection from SARS-CoV-2 triggered cell death / cytotoxicity (qualitative)” value is on record as “protection”.

For the compound `CCCCCCN(CCCCCC)C(=O)Cc1c(-c2ccc(F)cc2)[nH]c2ccccc12` [FGIN, FGIN 1-27], the “protection from SARS-CoV-2 triggered cell death / cytotoxicity (qualitative)” value is reported as “protection”.
